Data from PubChem BioAssay AID296 (DTP/NCI, 2004).
Inconclusive results are not listed. For part of its entries the source gives two or more results. This list holds those alone. The source may hold further records. Values given together are repeated measurements in other runs, samples, wells, individuals or studies. Brackets with × say how often a value occurs here.

Test system: MX-1 breast xenograft, nude mice, tumor weight T/C
Test: NCI In Vivo Anticancer Drug Screen. Data for tumor model Human Mammary Carcinoma MX-1 Xenograft (intrarenal inoculation) in NU/NU Swiss (nude) mice
Details: endpoint: mean tumor weight change, higher = larger tumour
Method in brief: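 Read-out: treated (T) over vehicle control (C) ratio of survival or tumor size. Dosing in animals carrying the transplanted tumor.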

[1] = dose: 6.0 mg/kg/injection, schedule: Q01DX010 (sc), vehicle: saline
[2] = dose: 12.0 mg/kg/injection, schedule: Q01DX010 (sc), vehicle: saline
[3] = dose: 50.0 mg/kg/injection, schedule: Q01DX010 (sc), vehicle: saline with Tween-80
[4] = dose: 16.0 mg/kg/injection, schedule: Q01DX010 (sc), vehicle: saline

What does the source list for `O=C1NC2(CCCCC2)C(=O)N1CCN(CCCl)CCCl`?
T/C [1]: -47 % of control and 67 % of control; T/C [2]: -36 % of control, 14 % of control, 16 % of control; T/C (dose: 24.0 mg/kg/injection, schedule: Q01DX010 (sc), vehicle: saline): -65 % of control, -55 % of control, -36 % of control; T/C (dose: 48.0 mg/kg/injection, schedule: Q01DX010 (sc), vehicle: saline): -100 % of control and -70 % of control

How did the T/C (dose: 6.25 mg/kg/injection, schedule: Q04DX003 (sc), vehicle: water) turn out when `O=NN(CCCl)C(=O)NCCO` was run?
Its T/C is 41 % of control and 189 % of control.

What does the source list for `CN1CCN(Cc2nc3cccc4c3c([n+]2[O-])-c2ccccc2-4)CC1`?
T/C [3]: 35 % of control and 108 % of control; T/C (dose: 100.0 mg/kg/injection, schedule: Q01DX010 (sc), vehicle: saline with Tween-80): 109 % of control and 155 % of control; T/C (dose: 200.0 mg/kg/injection, schedule: Q01DX010 (sc), vehicle: saline with Tween-80): 40 % of control and 81 % of control

Which results are given for `COc1cc(NCc2ccc3nc(N)nc(N)c3c2C)cc(OC)c1OC`?
T/C (dose: 5.0 mg/kg/injection, schedule: Q01DX010 (sc), vehicle: sodium bicarbonate): 19 % of control, 112 % of control, 180 % of control; T/C (dose: 10.0 mg/kg/injection, schedule: Q01DX010 (sc), vehicle: sodium bicarbonate): 62 % of control and 123 % of control

With `C=C1CC2(OC1=O)C(=O)N(C)c1ccc(I)cc12` (stereo not given) as the compound, how does the T/C (dose: 300.0 mg/kg/injection, schedule: Q04DX003 (sc), vehicle: suspension in saline) read?
Its T/C is 20 % of control, 79 % of control, 118 % of control.

And the T/C (dose: 600.0 mg/kg/injection, schedule: Q04DX003 (sc), vehicle: suspension in saline)?
The T/C was 20 % of control, 89 % of control, 105 % of control.

What about the T/C (dose: 1200.0 mg/kg/injection, schedule: Q04DX003 (sc), vehicle: suspension in saline) of the same compound?
Its T/C is 42 % of control, 69 % of control, 113 % of control.

And the T/C (dose: 2400.0 mg/kg/injection, schedule: Q04DX003 (sc), vehicle: suspension in saline)?
Its T/C is 70 % of control and 121 % of control.

How did the T/C (dose: 200.0 mg/kg/injection, schedule: Q04DX003 (sc), vehicle: water) turn out when `ClCC[N+]12CC[N+](CCCl)(CC1)C2` was run?
The T/C was 50 % of control and 87 % of control.

Which T/C (dose: 37.5 mg/kg/injection, schedule: Q04DX003 (sc), vehicle: suspension in saline) does the source give for `C(=N/NC1=NCCN1)/c1c2ccccc2c(/C=N\NC2=NCCN2)c2ccccc12` here?
The T/C was 26 % of control and 67 % of control.

How did the T/C (dose: 25.0 mg/kg/injection, schedule: Q01DX010 (sc), vehicle: saline with Tween-80) turn out when `Cc1cc(NCCCCCCCNc2cc(C)nc3cc(N)ccc23)c2ccc(N)cc2n1` was run?
Its T/C is 15 % of control, 29 % of control, 97 % of control.

What about the T/C [3] of the same compound?
Its T/C is 6 % of control, 26 % of control, 67 % of control.

Which T/C (dose: 26.66 mg/kg/injection, schedule: Q04DX003 (sc), vehicle: saline) does the source give for `Cc1c(N)nc([C@H](CC(N)=O)NC[C@H](N)C(N)=O)nc1C(=O)N[C@H](C(=O)N[C@H](C)[C@@H](O)[C@H](C)C(=O)N[C@H](C(=O)NCCc1nc(-c2nc(C(=O)NCCC[S+](C)C)cs2)cs1)[C@@H](C)O)C(OC1OC(CO)C(O)C(O)C1OC1OC(CO)C(O)C(OC(N)=O)C1O)c1cnc[nH]1` (stereo not given in full) here?
The T/C was 72 % of control and 101 % of control.

Which T/C (dose: 5.0 mg/kg/injection, schedule: Q04DX003 (sc), vehicle: saline) does the source give for `Nc1ncn(C2OC(CO)C(O)C2O)c(=O)n1` (stereo not given) here?
The T/C was 37 % of control and 84 % of control.

What about the T/C (dose: 10.0 mg/kg/injection, schedule: Q04DX003 (sc), vehicle: saline) of the same compound?
Its T/C is 22 % of control, 37 % of control, 53 % of control.

What about the T/C (dose: 400.0 mg/kg/injection, schedule: Q04DX003 (sc), vehicle: suspension in saline) of the same compound?
Its T/C is -96 % of control and 5 % of control.

What about the T/C (dose: 800.0 mg/kg/injection, schedule: Q04DX003 (sc), vehicle: suspension in saline) of the same compound?
The T/C was -100 % of control and 2 % of control.

What does the source list for `O=C1c2ccccc2C(=O)c2c(NCCNCCO)ccc(NCCNCCO)c21`?
T/C (dose: 4.0 mg/kg/injection, schedule: Q01DX010 (sc), vehicle: water): 36 % of control, 60 % of control, 74 % of control; T/C (dose: 8.0 mg/kg/injection, schedule: Q01DX010 (sc), vehicle: water): 12 % of control and 58 % of control

What does the source list for `O=NN(CCCl)C(=O)NCCCl`?
T/C [4]: 10 % of control and 59 % of control; T/C (dose: 30.0 mg/kg/injection, schedule: Q04DX003 (sc), vehicle: suspension in saline): 2 % of control and 28 % of control; T/C (dose: 60.0 mg/kg/injection, schedule: Q04DX003 (sc), vehicle: suspension in saline): -51 % of control and 41 % of control

`S=P(N1CC1)(N1CC1)N1CC1` was tested. Which T/C (dose: 1.0 mg/kg/injection, schedule: Q01DX010 (sc), vehicle: saline) did it give?
The T/C was -46 % of control and 9 % of control.

And the T/C (dose: 2.0 mg/kg/injection, schedule: Q01DX010 (sc), vehicle: saline)?
The T/C was -79 % of control and -15 % of control.

`COc1cccc2c1C(=O)c1c(O)c3c(c(O)c1C2=O)C[C@@](O)(C(C)=O)C[C@@H]3OC1CC(N(Cc2ccccc2)Cc2ccccc2)C(O)C(C)O1` (stereo not given in full) was tested. Which T/C (dose: 12.5 mg/kg/injection, schedule: Q01DX010 (sc), vehicle: water) did it give?
Its T/C is 15 % of control, 93 % of control, 153 % of control.

What about the T/C (dose: 25.0 mg/kg/injection, schedule: Q01DX010 (sc), vehicle: water) of the same compound?
Its T/C is 5 % of control, 42 % of control, 45 % of control.

`O=C(NO)c1ccc(O)c(O)c1` was tested. Which T/C (dose: 400.0 mg/kg/injection, schedule: Q04DX003 (sc), vehicle: distilled water + Tween-80) did it give?
The T/C was 15 % of control and 96 % of control.

What about the T/C (dose: 600.0 mg/kg/injection, schedule: Q04DX003 (sc), vehicle: distilled water + Tween-80) of the same compound?
Its T/C is 51 % of control and 94 % of control.

And the T/C (dose: 800.0 mg/kg/injection, schedule: Q04DX003 (sc), vehicle: distilled water + Tween-80)?
The T/C was 34 % of control and 85 % of control.

Which results are given for `CC(C)NC(=O)OCc1c(COC(=O)NC(C)C)c(-c2ccc(Cl)c(Cl)c2)n2c1CCC2`?
T/C (dose: 400.0 mg/kg/injection, schedule: Q01DX010 (sc), vehicle: distilled water + Tween-80): -30 % of control, 16 % of control, 21 % of control; T/C (dose: 800.0 mg/kg/injection, schedule: Q01DX010 (sc), vehicle: distilled water + Tween-80): -54 % of control (2×) and 5 % of control

What does the source list for `CC[N+](CC)(CC)CC`?
T/C (dose: 6.0 mg/kg/injection, schedule: Q01DX010 (sc), vehicle: saline with Tween-80): 90 % of control and 168 % of control; T/C (dose: 12.0 mg/kg/injection, schedule: Q01DX010 (sc), vehicle: saline with Tween-80): 57 % of control and 161 % of control

`OCCOCCN1CCN(CCCN2c3ccccc3Sc3ccc(C(F)(F)F)cc32)CC1` was tested. Which T/C [1] did it give?
Its T/C is 66 % of control and 107 % of control.

What about the T/C [2] of the same compound?
The T/C was 19 % of control and 66 % of control.

`Nc1ncnc2c1ncn2C1OC(COP(=O)(O)O)C(O)C1O` (stereo not given) was tested. Which T/C (dose: 100.0 mg/kg/injection, schedule: Q01DX010 (sc), vehicle: saline) did it give?
The T/C was 58 % of control and 123 % of control.

What about the T/C (dose: 200.0 mg/kg/injection, schedule: Q01DX010 (sc), vehicle: saline) of the same compound?
Its T/C is 30 % of control, 67 % of control, 110 % of control.

What does the source list for `O=NNc1ccccn1`?
T/C (dose: 12.5 mg/kg/injection, schedule: Q01DX010 (sc), vehicle: saline): 17 % of control and 46 % of control; T/C [4]: 2 % of control and 63 % of control; T/C (dose: 16.0 mg/kg/injection, schedule: Q04DX003 (sc), vehicle: saline): 16 % of control, 47 % of control, 97 % of control; T/C (dose: 32.0 mg/kg/injection, schedule: Q01DX010 (sc), vehicle: saline): -88 % of control and 5 % of control; T/C (dose: 32.0 mg/kg/injection, schedule: Q04DX003 (sc), vehicle: saline): 2 % of control, 11 % of control, 108 % of control

Which results are given for `COc1cccc2c1C(=O)c1c(O)c3c(c(O)c1C2=O)CC(O)(/C(C)=N/NC(=O)CCCCC(=O)N/N=C(\C)C1(O)Cc2c(O)c4c(c(O)c2C(OC2CC(N)C(O)C(C)O2)C1)C(=O)c1c(OC)cccc1C4=O)CC3OC1CC(N)C(O)C(C)O1` (stereo not given)?
T/C (dose: 12.5 mg/kg/injection, schedule: Q04DX003 (sc), vehicle: water): 50 % of control and 84 % of control; T/C (dose: 25.0 mg/kg/injection, schedule: Q04DX003 (sc), vehicle: water): 9 % of control and 99 % of control

With `CO[C@H]1Nc2c(ccc(C)c2O)C(=O)N2C=C(/C=C/C(N)=O)C[C@@H]12` as the compound, how does the T/C (dose: 0.25 mg/kg/injection, schedule: Q04DX003 (sc), vehicle: saline + alcohol) read?
Its T/C is 19 % of control and 100 % of control.

What about the T/C (dose: 1.0 mg/kg/injection, schedule: Q04DX003 (sc), vehicle: saline + alcohol) of the same compound?
Its T/C is -65 % of control and 9 % of control.

With `CCC1(O)CC2CN(CCc3c([nH]c4ccccc34)C(C(=O)OC)(c3cc4c(cc3OC)N(C)C3C(O)(C(=O)NCCSSCCNC(=O)C5(O)C(O)C6(CC)C=CCN7CCC8(c9cc(C%10(C(=O)OC)CC%11CN(CCc%12c%10[nH]c%10ccccc%12%10)CC(O)(CC)C%11)c(OC)cc9N(C)C58)C76)C(O)C5(CC)C=CCN6CCC43C65)C2)C1` (stereo not given) as the compound, how does the T/C (dose: 1.5 mg/kg/injection, schedule: Q04DX003 (sc), vehicle: saline) read?
Its T/C is 6 % of control and 88 % of control.

What about the T/C (dose: 3.0 mg/kg/injection, schedule: Q04DX003 (sc), vehicle: saline) of the same compound?
Its T/C is -100 % of control and 20 % of control.

What about the T/C (dose: 6.0 mg/kg/injection, schedule: Q04DX003 (sc), vehicle: saline) of the same compound?
Its T/C is -100 % of control and 3 % of control.
